PMC4336329 (PLoS ONE, 2015)
Among all 310,000 compounds or so, about 2,200 (0.71%) showed an effect of 50% or more. The effect is printed as a negative number. The list shows a part of the results.

biological target: human ether-à-go-go-related gene (hERG) potassium channel (human, UniProt Q12809); test: primary screen, population patch clamp on CHO cells stably expressing hERG
Sequence (Q12809 whole entry, looked up): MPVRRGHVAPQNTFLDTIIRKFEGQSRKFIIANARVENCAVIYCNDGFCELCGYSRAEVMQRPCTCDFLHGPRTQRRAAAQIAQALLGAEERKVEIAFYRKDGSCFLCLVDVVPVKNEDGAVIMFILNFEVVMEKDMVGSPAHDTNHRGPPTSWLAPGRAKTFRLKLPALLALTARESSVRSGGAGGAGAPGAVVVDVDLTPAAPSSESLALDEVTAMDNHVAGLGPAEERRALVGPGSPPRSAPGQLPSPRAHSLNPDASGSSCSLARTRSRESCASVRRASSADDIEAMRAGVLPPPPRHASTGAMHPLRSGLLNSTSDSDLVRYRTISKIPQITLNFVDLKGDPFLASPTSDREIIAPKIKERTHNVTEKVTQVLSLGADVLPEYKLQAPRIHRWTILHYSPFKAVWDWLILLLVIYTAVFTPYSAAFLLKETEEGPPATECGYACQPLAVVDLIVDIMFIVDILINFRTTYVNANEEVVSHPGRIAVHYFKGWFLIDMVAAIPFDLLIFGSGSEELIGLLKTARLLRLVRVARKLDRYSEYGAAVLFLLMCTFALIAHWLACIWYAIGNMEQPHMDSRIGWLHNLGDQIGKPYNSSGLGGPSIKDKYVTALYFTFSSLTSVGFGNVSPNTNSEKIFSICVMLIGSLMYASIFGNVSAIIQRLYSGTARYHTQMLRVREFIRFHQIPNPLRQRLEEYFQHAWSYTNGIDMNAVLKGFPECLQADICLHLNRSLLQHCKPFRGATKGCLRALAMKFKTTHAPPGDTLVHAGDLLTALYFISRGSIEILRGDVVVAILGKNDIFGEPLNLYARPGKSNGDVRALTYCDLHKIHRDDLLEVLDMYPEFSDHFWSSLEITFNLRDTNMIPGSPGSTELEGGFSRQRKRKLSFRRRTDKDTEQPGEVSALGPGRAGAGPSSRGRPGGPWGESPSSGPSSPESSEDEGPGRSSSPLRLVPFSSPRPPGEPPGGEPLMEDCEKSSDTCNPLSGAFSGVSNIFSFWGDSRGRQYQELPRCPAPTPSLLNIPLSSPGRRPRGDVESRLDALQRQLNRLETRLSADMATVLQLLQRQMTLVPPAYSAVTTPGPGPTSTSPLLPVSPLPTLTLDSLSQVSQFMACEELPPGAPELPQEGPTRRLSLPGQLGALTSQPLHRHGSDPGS

| SMILES | hERG current change (%, negative = inhibition) at 1uM [%] |
| --- | --- |
| O=C1C2C3CCC(C3)C2C(=O)N1CNc1ccc(F)cc1 (centres unmarked) | 9.38 |
| Cc1ccc(-c2csc(Nc3ccccn3)n2)cc1 | -0.636 |
| CC(Sc1nnc(Cc2ccccc2)n1C)C(=O)NC1CC1 (centres unmarked) | 11 |
| COc1ccc(-c2nc(CN3CCC(C(=O)NC4CCN(Cc5ccccc5)CC4)CC3)c(C)o2)cc1OC | 8.13 |
| COc1ccc(C(=O)Nc2ccc(C(=O)N3CCCC3)cc2)cc1[N+](=O)[O-] | -4.85 |
| c1ccc2oc(N3CCNCC3)nc2c1 | 7.21 |
| CSc1ccc(Cn2nnc(C(=O)NCCc3ccc(Cl)cc3)c2N)cc1 | 10.9 |
| CCn1c(SCC(=O)N2CCN(c3ccccc3)CC2)nc2c([nH]c3ccccc32)c1=O | 6.48 |
| Nc1nc(Nc2ccc(Cl)cc2)n[nH]1 | 1.23 |
| Cc1ccccc1C(=O)NC(NCc1ccco1)C(Cl)(Cl)Cl (centres unmarked) | 11.3 |
| COc1cc(C(=O)N2C[C@H]3C[C@@H](C2)c2cccc(=O)n2C3)cc(OC)c1OC | 13.4 |
| O=C(Cn1ncc2c([nH]c3ccccc32)c1=O)N1CCOCC1 | 10.6 |
| CCc1c(C(C)S(=O)(=O)c2ccc(C)cc2)[nH]c(=O)n1-c1ccc(OC(F)(F)F)cc1 (centres unmarked) | 14.5 |
| CCc1nnc(NC(=O)CCC(=O)N2CCN(c3cc(C)ccc3C)CC2)s1 | 13.2 |
| C=CCNc1nc(Nc2cc(Cl)ccc2OC)nc(OC)n1 | 16.4 |
| COc1cccc(-c2cc(C(=O)Nc3c(C)nn(Cc4ccccc4C)c3C)no2)c1 | -6.56 |
| CCCc1cc(=O)oc2cc(OCC(=O)NCCc3c[nH]c4ccc(OC)cc34)ccc12 | -0.609 |
| O=C(COC(=O)/C=C/c1cccs1)NC(c1ccccc1)c1ccccc1 | 7.52 |
| O=C(OC(C(=O)NCc1ccc2c(c1)OCO2)c1ccccc1F)c1ccco1 (centres unmarked) | 5.69 |
| Cc1cccc([C@@H]2[C@@H]3C(=O)N(Cc4ccccc4)C(=O)[C@@H]3[C@]3(Cc4ccccc4)C(=O)N(c4cccc(Cl)c4)C(=O)N23)c1 | 12 |
| O=C(CCNS(=O)(=O)c1ccc2c(c1)CCC(=O)N2)Nc1ccc(F)c(F)c1 | 7.73 |
| COC(=O)CSc1ncnc2c1sc1nc(-c3ccco3)c3c(c12)CC(C)(C)OC3 | 6.3 |

| SMILES | hERG current change (%, negative = inhibition) at 1uM [%] |
| --- | --- |
| CCOC(=O)CCCNC(=O)CCCNC(=O)C(c1ccccc1)c1ccccc1 | -0.415 |
| Cc1ccc(C(C)(C)C)c(OCCCn2ccnc2)c1.O=C(O)C(=O)O | 2.89 |
| Cn1nc(C(=O)NC2CCCCCC2)ccc1=O | 4.44 |
| Cc1ccc(S(=O)(=O)CC(=O)Nc2nnc(C(C)C)s2)cc1 | 10 |
| CCOC(=O)C1CCN(C(=O)c2ccccc2NC(=O)c2ccc(Cl)cc2)CC1 | 2.06 |
| CC(C)n1nnnc1SCC(=O)N1N=C(c2cccs2)CC1c1cccs1 (centres unmarked) | 2.55 |
| COc1ccc([C@@H]2CC(=O)c3c(O)cc(O[C@@H]4OC(CO[C@@H]5OC(C)[C@H](O)[C@H](O)C5O)[C@@H](O)[C@@H](O)C4O)cc3O2)cc1O (some centres unmarked) | 7.7 |
| Cc1c(NC(=O)Nc2cccc(C(F)(F)F)c2)c(=O)n(-c2ccccc2)n1C | 3.57 |
| C=CCOc1ccc(Cl)cc1CNCCCN1CCOCC1.Cl | 4.68 |
| CN(C)CC1CSCCC1(O)c1cccc(Cl)c1.Cl (centres unmarked) | 10.4 |
| Cc1[nH]c2ccccc2c1/C=N/NS(=O)(=O)c1ccccc1 | 14.4 |
| C/C(=N/NC(=O)c1ccccn1)c1ccncc1 | 12.8 |
| COc1cc(OC)c(OC)cc1CN(C)CC1CCCN(CCc2ccccc2F)C1 (centres unmarked) | -11.3 |
| Cc1cccc(N2CCN(Cc3nc(-c4ccc(F)cc4F)oc3C)CC2)n1 | -7.87 |
| N#Cc1c(C(F)(F)F)cc(-c2cccs2)nc1N1CCCCC1 | 16.7 |
| CC(=O)CCc1ccc(OCCCCN2CCC(Cc3ccccc3)CC2)cc1.O=C(O)C(=O)O | -68.3 |
| COc1ccccc1-n1c(-c2ccccc2Cl)nc2ccccc2c1=O | 6.57 |
| CC(=O)Nc1nc2n(n1)C(c1ccc(Cl)cc1)C=C(C)N2 (centres unmarked) | 9.35 |
| Cc1ccc(S(=O)(=O)NC2CC2)cc1 | 12.7 |
| CC1CCCC(C)N1CC(O)COCc1ccccc1.Cl (centres unmarked) | 10 |
| CCCN1C(=O)/C(=C/c2ccc(N3CCCC3)c(C)c2)NC1=S | 1.62 |
| COc1ccc(NC(=O)c2cc([N+](=O)[O-])ccc2O)cc1 | -14.5 |

| SMILES | hERG current change (%, negative = inhibition) at 1uM [%] |
| --- | --- |
| CC(NC(N)=O)C(=O)Nc1ccc(Cl)c(S(=O)(=O)Nc2ccc(Br)cc2)c1 (centres unmarked) | 16.1 |
| O=C(NC(=S)Nc1ccc(S(=O)(=O)N2CCCCC2)cc1)c1cccs1 | 13.8 |
| Cc1ccccc1CNC(=O)C1CCCN(c2nnc(C)c3c(C)n(-c4ccccc4)nc23)C1 (centres unmarked) | 11.7 |
| CCOC(=O)c1c(NC(=O)COc2ncnc3ccccc23)sc(C)c1C | 6.47 |
| Cc1noc(C)c1C(=O)OCC(=O)NCCc1ccccc1 | 14.8 |
| Cc1cc(C)nc(NC(=O)c2c(Cl)cccc2Cl)n1 | 5.34 |
| CN(C)/C=C/C(=C\C(=O)C(F)(F)F)Nc1ccc(C(F)(F)F)cc1 | 10.7 |
| O=C(Nc1ccc(Cl)cn1)c1ccc(-c2cc(Cl)ccc2Cl)o1 | 4.99 |
| O=C(CN1CCOCCOCCOCC1)Nc1ccccc1 | 6.76 |
| Cc1cccc(N(C(=O)CCC(=O)Nc2cc(C)on2)C(C(=O)NC2CCCC2)c2ccc(C)o2)c1 (centres unmarked) | 16.4 |
| CCOC(=O)Cc1nnc(Nc2cccc(C)c2)c2ccccc12 | -3.65 |
| O=C(CN1CCOCC1)Nc1c2c(nc3c1CCC3)CCC2.O=C(O)C(=O)O | 9.72 |
| COc1ccc(S(=O)(=O)Nc2c(C(=O)O)[nH]c3ccccc23)c(OC)c1 | -1.45 |
| Cn1nnc(C(O)CN2CCOCC2)n1 (centres unmarked) | -0.767 |
| O=C(Nc1ccccc1Br)C1CCC(=O)N1Cc1ccccc1Cl (centres unmarked) | 8.66 |
| COc1ccc2c(c1OC)C(=O)N(c1ccc3c(c1)CCC3)C2=O | 8.52 |
| NC(=O)COC(=O)c1cccc(S(=O)(=O)N2CCN(c3ccc(F)cc3)CC2)c1 | 18.7 |
| COc1ccc(/C=N/n2c(-c3n[nH]c4c3CCC4)n[nH]c2=S)c(OC)c1OC | 23 |
| O=C(O)CCNS(=O)(=O)c1ccc2ccccc2c1 | 14.1 |
| O=C1Nc2cc(S(=O)(=O)N3CCCC3)ccc2N2CCCC12 (centres unmarked) | 13.2 |
| Cc1cc(Br)ccc1NC(=O)CNC(=O)CN1C(=O)NC2(CCCCCC2)C1=O | 12.3 |
| CC(NC(=O)Cc1ccc([N+](=O)[O-])cc1)c1ccc2c(c1)OCO2 (centres unmarked) | 5.62 |

| SMILES | hERG current change (%, negative = inhibition) at 1uM [%] |
| --- | --- |
| CCOC(=O)C1=C(C)OC(N)=C(C(=O)OCC)[C@@]12C(=O)N(CC(N)=O)c1ccccc12 | 5.57 |
| COc1cc2c(cc1OC)C(COc1ccc(F)cc1)N(C(C)=O)CC2 (centres unmarked) | 14.3 |
| CCN(CC)C(=O)Cn1cc(/C=C2\C(=O)NC(=O)N(c3ccccc3F)C2=O)c2ccccc21 | 13.6 |
| O=S(=O)(Nc1ccc2nc(C(F)(F)F)[nH]c2c1)c1ccccc1 | 12.1 |
| O=C(/C=C/c1ccco1)Nc1ccc(Oc2ccc(Cl)cc2)cc1 | 12.8 |
| COc1ccc(CCNC(=O)C23CCC(C)(C(=O)O2)C3(C)C)cc1OC (centres unmarked) | 6.15 |
| CN(CC(=O)Nc1cccc(F)c1)C(=O)c1cccc(N2C(=O)CCC2=O)c1 | 10.4 |
| CCC(=O)N1CCc2cc(S(=O)(=O)NCCC(=O)NCc3ccccc3OC)ccc21 | 10.7 |
| CCOc1ccccc1CN1CCN(S(=O)(=O)CC)CC1.O=C(O)C(=O)O | 17 |
| CC12CCC(C(=O)Nc3cccc(Cl)c3Cl)([C@H](Br)C1=O)C2(C)C (some centres unmarked) | 8.9 |
| CCOc1ccc(N2C(=O)/C(=C/c3ccccc3OCC(=O)OC)N(CC(=O)OC)C2=S)cc1 | 9.51 |
| O=C(O)/C=C/C(=O)NNC(=O)c1cccc(Br)c1 | 6.81 |
| CC(=O)Nc1cccc(C(=O)N(CCc2ccccc2)Cc2ccccc2)c1 | 10.2 |
| Cc1ccc(S(=O)(=O)N2CCC(C(=O)OCC(=O)NC(C)c3ccc(F)cc3)CC2)cc1C (centres unmarked) | 2.85 |
| Nc1sc(-c2ccccc2)c(Cc2ccccc2)c1C(=O)O | 11.5 |
| O=C(CSc1nc2cc(Cl)ccc2o1)NCCc1ccccc1 | 6.91 |
| CC(C)(C)C1CCC(C(=O)OCC(=O)N2CCOCC2)CC1 (centres unmarked) | 7.13 |
| Cc1noc(C)c1CCC(=O)N1CCCC(N2CCN(c3ccc(F)cc3)CC2)C1 (centres unmarked) | -14.9 |
| CCc1c(C(=O)NNC(=S)NCC2CCCO2)csc1C (centres unmarked) | 0.898 |
| O=C(Nc1cccnc1)C12CC3CC(CC(C3)C1)C2 | 1.77 |
